Source: the RNAGym collection of RNA variant scans (doi:10.7554/elife.90254)
The source gives no read counts; variants with many changes may rest on few reads.

B1: LINE1-mini (parent)
chain: GGCAGAGCUCAACACAGCGUGGCAAAGUGGCUGUGGCUAGACUGCC

Variants of: B1
Assay: self-cleavage, relative activity (ratio to wild type); higher = more cleavage; in vitro, sequencing; the parent is a self-cleaving ribozyme

Question: For GGCAGAGCUAAACACAGCGUGGCAAAAUGGCUGUGGCUUGACUGCC, which self-cleavage is on record?
Answer: 0.22

Question: For GGCAGAGCUAAACACAGCGUGGCAAAAUGGAUGUGGCUAGACAGCC, which self-cleavage is on record?
Answer: 0.06

Question: Which self-cleavage does the source give for GGCAGAGCUAAACACAGCGUGGCAAAAUGGCUGUGGCUAGAAUGCC here?
Answer: 0

Question: With GGCAGAGCUAAACACAGCGUGGCAAAAUGGCUGUGCGUAGACUGCC as the variant, how does the self-cleavage read?
Answer: 0.01

Question: With GGCAGAGCUAAACACAGCGUGGCAAACUGGCUGUGGCUCGACUGCC as the variant, how does the self-cleavage read?
Answer: 0.02

Question: Which self-cleavage does the source give for GGCAGAGCUAAACACAGCGUGGCAAACUGGCUGUGGCUGGACUGCC here?
Answer: 0.01

Question: Which self-cleavage does the source give for GGCAGAGCUAAACACAGCGUGGCAAACUGGCUGUGGCCCGACCCCC here?
Answer: 0.01

Question: Which self-cleavage does the source give for GGCAGAGCUAAACACAGCGUGGCAAAUUGGCUGUGGCUAGUCUGCC here?
Answer: 0.02

Question: With GGCAGAGCUAAACACAGCGUGGCAAAUUGGCUGUGGAUAGACUGCC as the variant, how does the self-cleavage read?
Answer: 0.01

Question: With GGCAGAGCUAAACACAGCGUGGCAAAUUGGCUGUGGUUAGACUGCC as the variant, how does the self-cleavage read?
Answer: 0.02

Question: With GGCAGAGCUAAACACAGCGUGGCAAAUUGGCUGUGGCUAGACUGUC as the variant, how does the self-cleavage read?
Answer: 0.77

Question: With GGCAGAGCUAAACACAGCGUGGCAAAGUAGCUGUGGCUAGACUGCG as the variant, how does the self-cleavage read?
Answer: 0.02

Question: With GGCAGAGCUAAACACAGCGUGGCAAAGUAGCUGUGGCUACAUUGCC as the variant, how does the self-cleavage read?
Answer: 0.01

Question: Which self-cleavage does the source give for GGCAGAGCUAAACACAGCGUGGCAAAGUAGCUGAGGCUAGACUGCC here?
Answer: 0.03

Question: Which self-cleavage does the source give for GGCAGAGCUAAACACAGCGUGGCAAAGUCGCUGUGGAAAGACUGCC here?
Answer: 0.04

Question: With GGCAGAGCUAAACACAGCGUGGCAAAGUCGCUCUGACUAGACUGCC as the variant, how does the self-cleavage read?
Answer: 0.02

Question: With GGCAGAGCUAAACACAGCGUGGCAAAGUCGCUGUGGCUAAACUGCC as the variant, how does the self-cleavage read?
Answer: 0.05

Question: For GGCAGAGCUAAACACAGCGUGGCAAAGUCGCUGGGGCUAUACUGCC, which self-cleavage is on record?
Answer: 0.02

Question: With GGCAGAGCUAAACACAGCGUGGCAAAGUUGCUGUCGGUAGACUGCC as the variant, how does the self-cleavage read?
Answer: 0.01

Question: Which self-cleavage does the source give for GGCAGAGCUAAACACAGCGUGGCAAAGUUGCUGUGGCUAUACAGCC here?
Answer: 0.01

Question: For GGCAGAGCUAAACACAGCGUGGCAAAGUGACUGUGGAUAGACUGCC, which self-cleavage is on record?
Answer: 0.04

Question: With GGCAGAGCUAAACACAGCGUGGCAAAGUGACUGUGCCUAGACUGCC as the variant, how does the self-cleavage read?
Answer: 0.02

Question: With GGCAGAGCUAAACACAGCGUGGCAAAGUGACUGUGUCUAGACUGCC as the variant, how does the self-cleavage read?
Answer: 0.02

Question: Which self-cleavage does the source give for GGCAGAGCUAAACACAGCGUGGCAAAGUGACUGUGGCUAGACUACC here?
Answer: 0.01

Question: With GGCAGAGCUAAACACAGCGUGGCAAAGUGCCUGUGGUUAGACAGCC as the variant, how does the self-cleavage read?
Answer: 0.01

Question: Which self-cleavage does the source give for GGCAGAGCUAAACACAGCGUGGCAAAGUGCCUGUGGCUAGACUGCG here?
Answer: 0.07

Question: Which self-cleavage does the source give for GGCAGAGCUAAACACAGCGUGGCAAAGUGUCUGUGGCUUGAAUGCC here?
Answer: 0.05

Question: With GGCAGAGCUAAACACAGCGUGGCAAAGUGUGUGUGGCUAGACCGCC as the variant, how does the self-cleavage read?
Answer: 0

Question: With GGCAGAGCUAAACACAGCGUGGCAAAGUGUCUGUGCCUAGACUACC as the variant, how does the self-cleavage read?
Answer: 0.02

Question: Which self-cleavage does the source give for GGCAGAGCUAAACACAGCGUGGCAAAGUGUCUGUGGCUAUACUGCC here?
Answer: 0.02

Question: For GGCAGAGCUAAACACAGCGUGGCAAAGUGUCUGAGGCUAGACUGCC, which self-cleavage is on record?
Answer: 0.05

Question: For GGCAGAGCUAAACACAGCGUGGCAAAGUGGCUCUGGCUGGACUGCG, which self-cleavage is on record?
Answer: 0

Question: For GGCAGAGCUAAACACAGCGUGGCAAAGUGGCUCUGUCUAGACUGCC, which self-cleavage is on record?
Answer: 0.02

Question: For GGCAGAGCUAAACACAGCGUGGCAAAGUGGCUUUGGCUGGACUGCC, which self-cleavage is on record?
Answer: 0.01

Question: For GGCAGAGCUAAACACAGCGUGGCAAAGUGGCUUUGACUAGACUGCC, which self-cleavage is on record?
Answer: 0.04

Question: With GGCAGAGCUAAACACAGCGUGGCAAAGUGGCUUUGGCUAUACUGCC as the variant, how does the self-cleavage read?
Answer: 0

Question: Which self-cleavage does the source give for GGCAGAGCUAAACACAGCGUGGCAAAGUGGCUUUGGCUAGACUCCC here?
Answer: 0.03

Question: With GGCAGAGCUAAACACAGCGUGGCAAAGUGGCUGUAGCUAGACGGGC as the variant, how does the self-cleavage read?
Answer: 0.01

Question: With GGCAGAGCUAAACACAGCGUGGCAAAGUGGCUGUCGCUAGACUGCU as the variant, how does the self-cleavage read?
Answer: 0.04

Question: For GGCAGAGCUAAACACAGCGUGGCAAAGUGGCUGUCGCUAAACAGCC, which self-cleavage is on record?
Answer: 0.01

Question: With GGCAGAGCUAAACACAGCGUGGCAAAGUGGCUGUUGGUAGACUGCC as the variant, how does the self-cleavage read?
Answer: 0.03

Question: Which self-cleavage does the source give for GGCAGAGCUAAACACAGCGUGGCAAAGUGGCUGUUGCUAUACUGCC here?
Answer: 0.02

Question: With GGCAGAGCUAAACACAGCGUGGCAAAGUGGCUGUUGCUAGACUUCC as the variant, how does the self-cleavage read?
Answer: 0.02

Question: For GGCAGAGCUAAACACAGCGUGGCAAAGUGGCUGUUGCAAGACUGCC, which self-cleavage is on record?
Answer: 0

Question: For GGCAGAGCUAAACACAGCGUGGCAAAGUGGCUGUGACUAGACUGCA, which self-cleavage is on record?
Answer: 0.02

Question: For GGCAGAGCUAAACACAGCGUGGCAAAGUGGCUGUGCCUUGACUUAC, which self-cleavage is on record?
Answer: 0

Question: Which self-cleavage does the source give for GGCAGAGCUAAACACAGCGAGGCUAAGUGGCUGUGGUUAGACUGCC here?
Answer: 0

Question: For GGCAGAGCUAAACACAGCGAGGCAAAGUGGCUGUGGCUAGACUGCA, which self-cleavage is on record?
Answer: 0

Question: For GGCAGAGCUAAACACAGCGAAGCCAAGUCGCUCUGGCUAGACUGCC, which self-cleavage is on record?
Answer: 0.02

Question: Which self-cleavage does the source give for GGCAGAGCUAAACACAGCGAAGCAAAGUGGCUGUGGCACGAUUGCC here?
Answer: 0.05

Question: For GGCAGAGCUAAACACAGCGAGGCAAAGCGGCUGUGGCUAGACUGCC, which self-cleavage is on record?
Answer: 0.15

Question: For GGCAGAGCUAAACACAGCGAGGCAAAGUGGCUGUGGCAAGACUGCC, which self-cleavage is on record?
Answer: 0.04

Question: Which self-cleavage does the source give for GGCAGAGCUAAACACAGCGCGGCCAUGUGGCUGUGGCUAGACUGCC here?
Answer: 0.03

Question: For GGCAGAGCUAAACACAGCGCGGCAAGUUGGCUGUGGCUAGACUUCC, which self-cleavage is on record?
Answer: 0.01

Question: Which self-cleavage does the source give for GGCAGAGCUAAACACAGCGCGGAAAAGAGGCUGUGCCUAGACUGCC here?
Answer: 0

Question: With GGCAGAGCUAAACACAGCGCGGCAAAGUGGCUGUAGCUAGACUGCC as the variant, how does the self-cleavage read?
Answer: 0.01
